These are yes or no findings as the source states them, for the method shown. In cells and extracts the contact can be indirect. Some binding calls cover weakened binding; strength is not graded here. For some assays here: Tags and fused reporters may be left off the sequences shown.
Key:
[1] = molecular target: T1, Cdc13 tagged with (FLAG)3 (S. cerevisiae) (UniProt P32797); test: co-IP; anti-FLAG IP of Cdc13 tagged with (FLAG)3 from yeast extracts, Est1 tagged with (myc)12
T1 sequence: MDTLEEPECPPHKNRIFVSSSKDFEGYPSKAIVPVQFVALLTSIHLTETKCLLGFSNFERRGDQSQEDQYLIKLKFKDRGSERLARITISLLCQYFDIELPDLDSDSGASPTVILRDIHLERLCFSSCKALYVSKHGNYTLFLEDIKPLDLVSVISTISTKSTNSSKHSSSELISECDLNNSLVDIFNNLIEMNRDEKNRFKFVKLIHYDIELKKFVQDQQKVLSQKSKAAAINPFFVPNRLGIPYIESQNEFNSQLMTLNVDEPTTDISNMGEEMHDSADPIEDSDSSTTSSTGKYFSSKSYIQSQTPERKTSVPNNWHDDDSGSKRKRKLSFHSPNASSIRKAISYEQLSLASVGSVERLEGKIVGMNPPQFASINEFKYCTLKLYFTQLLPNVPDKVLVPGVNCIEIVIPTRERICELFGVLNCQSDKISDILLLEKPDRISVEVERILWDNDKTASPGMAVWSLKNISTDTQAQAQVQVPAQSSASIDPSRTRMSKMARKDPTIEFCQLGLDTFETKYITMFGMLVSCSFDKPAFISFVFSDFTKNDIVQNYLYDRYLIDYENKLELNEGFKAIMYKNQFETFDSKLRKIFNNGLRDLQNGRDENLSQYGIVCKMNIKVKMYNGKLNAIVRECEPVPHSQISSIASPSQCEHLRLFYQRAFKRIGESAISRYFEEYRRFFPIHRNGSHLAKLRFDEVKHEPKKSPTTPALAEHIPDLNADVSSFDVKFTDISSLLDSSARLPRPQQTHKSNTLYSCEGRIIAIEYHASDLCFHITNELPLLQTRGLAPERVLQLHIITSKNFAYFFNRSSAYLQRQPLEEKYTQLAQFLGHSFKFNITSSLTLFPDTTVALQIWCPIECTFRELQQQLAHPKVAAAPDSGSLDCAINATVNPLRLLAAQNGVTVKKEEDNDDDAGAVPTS

Chains of the proteins cited; added tags and fusions are not shown. Lines headed by an entry give the natural chain unless they say otherwise; changes in a name come on top.
UniProt Q06163: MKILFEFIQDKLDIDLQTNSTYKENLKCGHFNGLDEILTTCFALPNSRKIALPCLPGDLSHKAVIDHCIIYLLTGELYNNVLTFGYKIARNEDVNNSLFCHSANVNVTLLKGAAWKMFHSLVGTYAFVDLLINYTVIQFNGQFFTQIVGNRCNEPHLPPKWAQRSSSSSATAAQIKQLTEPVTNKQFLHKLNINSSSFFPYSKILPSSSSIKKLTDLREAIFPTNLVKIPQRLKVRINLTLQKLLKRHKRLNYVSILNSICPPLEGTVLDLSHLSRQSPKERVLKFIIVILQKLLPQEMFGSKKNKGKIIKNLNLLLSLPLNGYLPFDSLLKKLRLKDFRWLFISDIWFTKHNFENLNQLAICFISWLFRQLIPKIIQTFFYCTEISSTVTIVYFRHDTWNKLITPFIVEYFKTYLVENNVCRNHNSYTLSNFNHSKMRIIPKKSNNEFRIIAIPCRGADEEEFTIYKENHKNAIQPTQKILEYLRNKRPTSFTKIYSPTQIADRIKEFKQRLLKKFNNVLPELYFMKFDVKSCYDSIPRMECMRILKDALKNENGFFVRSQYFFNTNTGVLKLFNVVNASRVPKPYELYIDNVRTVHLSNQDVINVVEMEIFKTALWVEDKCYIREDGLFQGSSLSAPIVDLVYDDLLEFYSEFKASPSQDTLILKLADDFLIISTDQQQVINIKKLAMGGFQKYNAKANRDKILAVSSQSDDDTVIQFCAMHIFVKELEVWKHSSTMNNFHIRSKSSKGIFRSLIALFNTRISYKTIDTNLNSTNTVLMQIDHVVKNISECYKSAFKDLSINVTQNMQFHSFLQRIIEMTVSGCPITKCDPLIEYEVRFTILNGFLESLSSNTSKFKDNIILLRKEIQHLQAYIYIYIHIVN
UniProt Q03096: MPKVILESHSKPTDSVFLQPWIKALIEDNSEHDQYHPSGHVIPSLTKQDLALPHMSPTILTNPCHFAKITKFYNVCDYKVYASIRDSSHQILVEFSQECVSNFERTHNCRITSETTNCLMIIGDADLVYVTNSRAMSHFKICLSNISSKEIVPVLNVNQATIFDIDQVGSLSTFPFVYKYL

[2] = molecular target: T2, Cdc13-E252K tagged with (FLAG)3 (S. cerevisiae) (UniProt P32797); test: as above
T2 sequence: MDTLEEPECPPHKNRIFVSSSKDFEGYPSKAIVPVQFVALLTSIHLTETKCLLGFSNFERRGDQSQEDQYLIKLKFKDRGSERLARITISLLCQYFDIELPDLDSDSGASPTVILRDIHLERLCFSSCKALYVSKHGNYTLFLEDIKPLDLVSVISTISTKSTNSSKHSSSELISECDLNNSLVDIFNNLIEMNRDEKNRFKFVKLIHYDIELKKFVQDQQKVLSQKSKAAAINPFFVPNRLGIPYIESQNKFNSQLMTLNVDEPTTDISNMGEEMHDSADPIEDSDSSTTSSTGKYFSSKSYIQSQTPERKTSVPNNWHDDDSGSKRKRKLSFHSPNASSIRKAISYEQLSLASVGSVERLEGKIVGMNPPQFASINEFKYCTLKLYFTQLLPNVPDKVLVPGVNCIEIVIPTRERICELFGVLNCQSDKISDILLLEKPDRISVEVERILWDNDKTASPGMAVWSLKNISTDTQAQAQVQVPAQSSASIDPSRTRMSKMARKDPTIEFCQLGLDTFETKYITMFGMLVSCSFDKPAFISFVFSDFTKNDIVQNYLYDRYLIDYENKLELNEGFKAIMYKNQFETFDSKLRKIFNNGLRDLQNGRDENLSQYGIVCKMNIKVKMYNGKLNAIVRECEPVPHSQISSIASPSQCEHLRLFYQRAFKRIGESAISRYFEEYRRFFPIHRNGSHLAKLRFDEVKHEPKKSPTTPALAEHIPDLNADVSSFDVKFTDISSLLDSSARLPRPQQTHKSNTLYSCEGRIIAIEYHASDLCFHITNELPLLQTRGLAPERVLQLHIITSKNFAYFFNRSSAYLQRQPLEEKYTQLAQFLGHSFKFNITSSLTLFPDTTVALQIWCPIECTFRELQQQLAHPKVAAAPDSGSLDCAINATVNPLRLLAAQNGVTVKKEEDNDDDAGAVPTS

[3] = molecular target: telomerase (S. cerevisiae) (UniProt P17214+Q06163+Q03096); test: co-IP; co-IP of telomerase with factors encoded by nonessential genes (Figure S6 in File S1); bait not told

B1: Est1-(myc)12, wild-type Est1 telomerase subunit (protein, UniProt P17214 1-699)
chain: MDNEEVNEECMRLFFKNARAHLDKHLTSRLTCDENAYITFRCFLDGIHRKSTRFLEELLLKQENMYHNNNYERINDSVIPLVLKLLWLQIHEPTLQWFEHWFHDIMRLSNRRKFRVFRIFQKKMIQFFKITHRYYYDIIEHLCAKYDMNSVISNALFAKLNLMQYTDGLSTHEKIILNTSNPLTFSIVISLQRCVINLGSTHFYKTLLNKPSNKPKSVEGFEKSIRYLNIASLYLPAVGDTYFQRAKIYLITGKFSLYFFELVRGALVRIPSKCALNNLKDFILTPDFPERRRLMKKLAILVSKDLKGEKSFFEGQIVLQFLSIVEHTLVPQSWNASRASNCWLLKEHLQMAALKYHSGNINVILENLAATMGSFDLMFTTRKSKEQKNKLKYADLSERQVFFLDLSFDFIANIIDVVIKPSWQKNMEDFRYLAIIRLLMCWIKSYRSILQYTHRHRKFCTSFALLLNDLINSPLNCSGNIYSHRPKRSYLFREDIIFREFSCINFALTDFNDDYVYDSPDMINNIIGCPTLTKVLSPKEECVLRIRSIIFSGMKFLEKNDTGVIWNASKYKFDLISPNIKIKRQIALSEISSKINVKTQQERVVSSRKVEAKRDEQQRKRAGKIAVTELEKQFANVRRTKKLSPLPEKDGVSSELVKHAASRGRKTITGPLSSDFLSYPDEAIDADEDITVQVPDTPT
With B1 the binding [1] was “binds” and the binding [2] was “no binding”.

B2: Est1-K444E-(myc)12 (protein, UniProt P17214 1-699)
chain: MDNEEVNEECMRLFFKNARAHLDKHLTSRLTCDENAYITFRCFLDGIHRKSTRFLEELLLKQENMYHNNNYERINDSVIPLVLKLLWLQIHEPTLQWFEHWFHDIMRLSNRRKFRVFRIFQKKMIQFFKITHRYYYDIIEHLCAKYDMNSVISNALFAKLNLMQYTDGLSTHEKIILNTSNPLTFSIVISLQRCVINLGSTHFYKTLLNKPSNKPKSVEGFEKSIRYLNIASLYLPAVGDTYFQRAKIYLITGKFSLYFFELVRGALVRIPSKCALNNLKDFILTPDFPERRRLMKKLAILVSKDLKGEKSFFEGQIVLQFLSIVEHTLVPQSWNASRASNCWLLKEHLQMAALKYHSGNINVILENLAATMGSFDLMFTTRKSKEQKNKLKYADLSERQVFFLDLSFDFIANIIDVVIKPSWQKNMEDFRYLAIIRLLMCWIESYRSILQYTHRHRKFCTSFALLLNDLINSPLNCSGNIYSHRPKRSYLFREDIIFREFSCINFALTDFNDDYVYDSPDMINNIIGCPTLTKVLSPKEECVLRIRSIIFSGMKFLEKNDTGVIWNASKYKFDLISPNIKIKRQIALSEISSKINVKTQQERVVSSRKVEAKRDEQQRKRAGKIAVTELEKQFANVRRTKKLSPLPEKDGVSSELVKHAASRGRKTITGPLSSDFLSYPDEAIDADEDITVQVPDTPT
B2 was tested, and the binding [2] was “binds”.

B3: Ebs1 (protein, UniProt Q03466 1-884)
chain: MEPSNTQKEDLPTAFNGIKSQLNSILKSNQLFQDYALLNGFLAFVHSKLNAAILTSIESQCGKSFAADLDSFDQSSISSILDFSWESVHYPIFKWFQMWRNYILFEKENKKQQTKFIDFRKMNSKMLKFFKTVQNFYVNVINTVYKKYDISVLLPKRIIQDLKLSDIENTTNVGDILAVKTFNSSSPLAHLIPTLFHRCLLFLGTAYRYKTLLEEISNKYSISNFKKSLDFFRLASLVLPSAGETYSQAGAIFLQTGNLGIAVFNFVKGMMTKMPSPVSIKNFGALMVDNKSSLNRSLHTTIMNTYLQESKGPRTPAKEILEFYFLGLFGSVWSPTSWRDDTKPNQLNNGIKLRHLENALYETMSARYLNNIKTIFHNLIITIGGFHLLLKRRSDVSAKTLKDLRSNELDYLNFAFKYIAHILNDIVKESWSENPEVSEILGMVRIINCWIKANPMVLQYSQSNLEFVNALAYLINDIVKKKPSPSFSITEHIPKRTYWFEEDLMVKGLSFVNFQLSDFDDYEKILEMDHSLDRLIGNPPLCDKLSASSEMLLRLQAVVNISSQLLQNNNCGVEWSDNKSRYIFNKKIGFKETVKNSMKTSKQSNEKAKLQRKNKPSTTNGSISMADLERQMRSSSLDSFSPTMGYSGSSVPMAPDTFNVKPSGTITGNKVNVELLKIELSGQNADGAITNISPGYSNAAISSSNSTDESSFDLNNILSSMQQKHAEKSFAKSMQGVNEQIPANDVCHQAQRPMQGGLYSSQQPSSMSSLNSAYQNASMPPSASMVSYPYPFLNQQGQGVFPPYNAQNLQWQSEAYSLKSMNFANPTWLGDQYQTSAPSSAYAQAQRQMFQQPMQQDVGKYMQFPFDAQSNTDSMRGNSRNNMF
B3 was tested, and the binding [3] was “no binding”.

B4: Msp3 (protein, UniProt P47069 1-682)
chain: MNNSNEHRREEAGAANEQMPYNKAVKSAYADVLKDKMNREQEISLRAIKKGIYTDGGETDNYDMDKENDSAYEMFKKNLDFPLDQHNDDDDDDPYIEDNGQETDGYSDEDYTDEADKSFIEDSDSDSYDLESNSDFEENLESSGEAKKLKWRTYIFYGGLFFVFYFFGSFLMTTVKNNDLESHSSGATSSPGKSFSNLQKQVNHLYSELSKRDEKHSSELDKTVKIIVSQFEKNIKRLLPSNLVNFENDINSLTKQVETISTSMSELQRRNHKFTVENVTQWQDQLVKQLDTHLPQEIPVVINNSSSLLIIPELHNYLSALISDVIESPGIGTAGSAESRWEYDLNRYVKEILSNELQYIDKDYFIQEMNRRLQSNKQEIWEEITNRLETQQQQQQQQVQQDYSNVPQQYSSILMKRLIHQIYNSNQHQWEDDLDFATYVQGTKLLNHLTSPTWRQGSGVQPIELLTDSKQSSSTYWQCENEPGCSWAIRFKTPLYLTKISYMHGRFTNNLHIMNSAPRLISLYVKLSQTKEIKALQTLANQYGFGQHHKRDRNYIKIAKFEYRLTDSRIRQQMYLPPWFIQLKPLVRSIVFQVDENYGNKKFISLRKFIINGVTPQDLQIIENNEFPVLLGDTPEYGVTQNTDEGKRKVLLSKPPYASSSTSTKFHPASNVPSFGQDELDQ
B4 was tested, and the binding [3] was “no binding”.
